Columns and labels:
[1] = biological target: human glucagon-like peptide-1 receptor (human, UniProt P43220 24-463); experiment: cell-based or functional assay
[2] = biological target: human glucagon receptor (human, UniProt P47871 26-477); experiment: cell-based or functional assay
Sequence of UniProt P47871 (P47871 26-477): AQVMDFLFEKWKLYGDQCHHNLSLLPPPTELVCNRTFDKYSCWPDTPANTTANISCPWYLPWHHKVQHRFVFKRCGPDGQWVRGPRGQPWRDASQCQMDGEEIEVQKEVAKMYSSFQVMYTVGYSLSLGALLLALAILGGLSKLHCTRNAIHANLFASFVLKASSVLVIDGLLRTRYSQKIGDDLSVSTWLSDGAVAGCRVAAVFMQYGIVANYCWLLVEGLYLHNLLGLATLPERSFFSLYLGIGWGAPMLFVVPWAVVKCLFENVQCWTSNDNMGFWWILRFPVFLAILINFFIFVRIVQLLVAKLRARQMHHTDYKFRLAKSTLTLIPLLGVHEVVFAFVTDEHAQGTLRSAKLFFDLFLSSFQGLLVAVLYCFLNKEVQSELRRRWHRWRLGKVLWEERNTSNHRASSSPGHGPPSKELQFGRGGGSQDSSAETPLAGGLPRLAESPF

hGLP-1R EC50 (pM) [1]: 9620 pM
hGCGR EC50 (pM) [2]: 705 pM
B1: Conjugate 1898: aGIPR 2G10.007 SEFL2-E384C-3360331 (other)
heavy: QVQLVESGGGVVQPGRSLRLSCAASGFTFSNYGMHWVRQAPGKGLEWVAAIWFDASDKYYAD[about 20 residues not spelt out]MNSLRAEDTAVYYCARDQAIFGVVPDYWGQGTLVTVSSASTKGPSVFPLAPSSKSTSGGTAALGCLVKDYFPEPVTVSWNSGALTSGVHTFPAVLQSSGLYSLSSVVTVPSSSLGTQTYICNVNHKPSNTKVDKKVEPKSCDKTHTCPPCPAPELLGGPSVFLFPPKPKDTLMISRTPEVTCVVVDVSHEDPCVKFNWYVDGVEVHNAKTKPCEEQYGSTYRCVSVLTVLHQDWLNGKEYKCKVSNKALPAPIEKTISKAKGQPREPQVYTLPPSREEMTKNQVSLTCLVKGFYPSDIAVEWESNGQPENNYKTTPPVLDSDGSFFLYSKLTVDKSRWQQGNVFSCSVMHEALHNHYTQKSLSLSPGK
light: EIVMTQSPATLSVSPGERATLSCRASQSVSSNLAWYQQKPGQAPRLLIYGAATRATGIPARFSGSGSGTEFTLTISSLEPEDFAVYYCQQYNNFPLTFGGGTKVEIKRTVAAPSVFIFPPSDEQLKSGTASVVCLLNNFYPREAKVQWKVDNALQSGNSQESVTEQDSKDSTYSLSSTLTLSKADYEKHKVYACEVTHQGLSSPVTKSFNRGEC
peptide: [about 20 residues not spelt out]
chain: GSPAPAPAPAPAPAPAPAPAPASGG
modifications: N-term acetyl-thioether to Cys; K28 eps-NH linked to linker C-term; C275 conjugated to linker

Reference: patent publication US20250276080A1 (Amgen, published 2025)
